# Data: patent US9873709B2 (priority 2013, dated 2018)
# Molecular target: isolated recombinant JAK1 kinase domain (Homo sapiens (Human), UniProt P23458)
# Settings: read-out: JAK1 Ki; isolated recombinant JAK1 kinase domain, 25 μM ATP
row,Ki [nM],Structure (SMILES)
1,7.73,"Cc1ccc(C2(O)CCN(c3cccn4nc(Nc5ccc(C(=O)N(C)C6CCN(C)CC6)cc5)nc34)CC2)cc1 [Example 1-39, 4-[[8-[4-hydroxy-4-(p-tolyl)-1-piperidyl]-[1,2,4]triazolo[1,5-a]pyridin-2-yl]amino]-N-methyl-N-(1-methyl-4-piperidyl)benzamide]"
2,2.05,"CN1CCC(N(C)C(=O)c2ccc(Nc3nc4c(N5CCC(CC#N)(c6ccccc6)CC5)cccn4n3)cc2)CC1 [Example 1-41, 4-[[8-[4-(cyanomethyl)-4-phenyl-1-piperidyl]-[1,2,4]triazolo[1,5-a]pyridin-2-yl]amino]-N-methyl-N-(1-methyl-4-piperidyl)benzamide]"
3,920,"CN1CCC(N(C)C(=O)c2ccc(Nc3nc4c(N5CCC(C(=O)N6CC(C)(C)C6)CC5)cccn4n3)cc2)CC1 [Example 1-42, 4-{8-[4-(3,3-Dimethyl-azetidine-1-carbonyl)-piperidin-1-yl]-1,8a-dihydro [1,2,4]triazolo[1,5a]pyridine-2-ylamino}-N-methyl-N-(1-methyl-piperidin-4-yl)-benzamide]"
4,31,"CN1CCC(N(C)C(=O)c2ccc(Nc3nc4c(N5CCC(O)(c6ccccc6)CC5)cccn4n3)cc2)CC1 [Example 1-43, 4-[[8-(4-hydroxy-4-phenyl-1-piperidyl)-[1,2,4]triazolo[1,5-a]pyridin-2-yl]amino]-N-methyl-N-(1-methyl-4-piperidyl)benzamide]"
5,52.4,"COCCOc1cc(COC2CCN(c3cccn4nc(Nc5ccc(C(=O)N(C)C6CCN(C)CC6)cc5)nc34)CC2)ccn1 [Example 1-44, 4-[[8-[4-[[2-(2-methoxyethoxy)-4-pyridyl]methoxy]-1-piperidyl]-[1,2,4]triazolo[1,5-a]pyridin-2-yl]amino]-N-methyl-N-(1-methyl-4-piperidyl)benzamide]"
6,1.88,"CN1CCCCC1C1CCCN1C(=O)c1ccc(Nc2nc3c(N4CCC(O)(c5ccc(Cl)cc5)CC4)cccn3n2)cc1 (centres unmarked) [Example 1-52, [4-[[8-[4-(4-chlorophenyl)-4-hydroxy-1-piperidyl]-[1,2,4]triazolo[1,5-a]pyridin-2-yl]amino]phenyl]-[2-(1-methyl-2-piperidyl)pyrrolidin-1-yl]methanone]"
7,1.15,"O=C(c1ccc(Nc2nc3c(N4CCC(O)(c5ccc(Cl)cc5)CC4)cccn3n2)cc1)N1CCN(C2CC2)CC1 [Example 1-54, [4-[[8-[4-(4-chlorophenyl)-4-hydroxy-1-piperidyl]-[1,2,4]triazolo[1,5-a]pyridin-2-yl]amino]phenyl]-(4-cyclopropylpiperazin-1-yl)methanone]"
8,3.18,"Cc1ccc(CNC(=O)c2ccc(Nc3nc4c(N5CCC(O)(c6ccc(Cl)cc6)CC5)cccn4n3)cc2)cn1 [Example 1-58, 4-[[8-[4-(4-chlorophenyl)-4-hydroxy-1-piperidyl]-[1,2,4]triazolo[1,5-a]pyridin-2-yl]amino]-N-[(6-methyl-3-pyridyl)methyl] benzamide]"
9,1.27,"CN1CCC2(C1)CN(C(=O)c1ccc(Nc3nc4c(N5CCC(O)(c6ccc(Cl)cc6)CC5)cccn4n3)cc1)C2 [Example 1-59, [4-[[8-[4-(4-chlorophenyl)-4-hydroxy-1-piperidyl]-[1,2,4]triazolo[1,5-a]pyridin-2-yl]amino]phenyl]-(7-methyl-2,7-diazaspiro[3.4]octan-2-yl)methanone]"
10,1.42,"CN1CCC(NC(=O)c2ccc(Nc3nc4c(N5CCC(O)(c6ccc(Cl)cc6)CC5)cccn4n3)cc2)C1 (centres unmarked) [Example 1-62, 4-[[8-[4-(4-chlorophenyl)-4-hydroxy-1-piperidyl]-[1,2,4]triazolo[1,5-a]pyridin-2-yl]amino]-N-(1-methylpyrrolidin-3-yl)benzamide]"

# The next lines start with the compound.
row,Structure (SMILES),Ki [nM]
1,"COc1ccc(C2(O)CCN(c3cccn4nc(Nc5ccc(C(=O)N(C)C6CCN(C)CC6)cc5)nc34)CC2)cc1 [Example 1-40, 4-[[8-[4-hydroxy-4-(4-methoxyphenyl)-1-piperidyl]-[1,2,4]triazolo[1,5-a]pyridin-2-yl]amino]-N-methyl-N-(1-methyl-4-piperidyl)benzamide]",11.5
2,"CN1CCC(N(C)C(=O)c2ccc(Nc3nc4c(N5CCC(C#N)(c6ccccc6)CC5)cccn4n3)cc2)CC1 [Example 1-45, 4-[[8-(4-cyano-4-phenyl-1-piperidyl)-[1,2,4]triazolo[1,5-a]pyridin-2-yl]amino]-N-methyl-N-(1-methyl-4-piperidyl)benzamide]",194
3,"CN1CCC(N(C)C(=O)c2ccc(Nc3nc4c(N5CCc6ccccc6C5)cccn4n3)cc2)CC1 [Example 1-46, 4-[[8-(3,4-dihydro-1H-isoquinolin-2-yl)-[1,2,4]triazolo[1,5-a]pyridin-2-yl]amino]-N-methyl-N-(1-methyl-4-piperidyl)benzamide]",101
4,"CN1C2COCC1CN(C(=O)c1ccc(Nc3nc4c(N5CCC(O)(c6ccc(Cl)cc6)CC5)cccn4n3)cc1)C2 [Example 1-50, [4-[[8-[4-(4-chlorophenyl)-4-hydroxy-1-piperidyl]-[1,2,4]triazolo[1,5-a]pyridin-2-yl]amino]phenyl]-(9-methyl-3-oxa-7,9-diazabicyclo[3.3.1]nonan-7-yl)methanone]",3.11
5,"O=C(c1ccc(Nc2nc3c(N4CCC(O)(c5ccc(Cl)cc5)CC4)cccn3n2)cc1)N1CCCC(O)(CN2CCCC2)CC1 (centres unmarked) [Example 1-51, [4-[[8-[4-(4-chlorophenyl)-4-hydroxy-1-piperidyl]-[1,2,4]triazolo[1,5-a]pyridin-2-yl]amino]phenyl]-[4-hydroxy-4-(pyrrolidin-1-ylmethyl)azepan-1-yl]methanone]",3.74
6,"CC(=O)N1CC2(C1)CN(C(=O)c1ccc(Nc3nc4c(N5CCC(O)(c6ccc(Cl)cc6)CC5)cccn4n3)cc1)C2 [Example 1-53, 1-[2-[4-[[8-[4-(4-chlorophenyl)-4-hydroxy-1-piperidyl]-[1,2,4]triazolo[1,5-a]pyridin-2-yl]amino]benzoyl]-2,6-diazaspiro[3.3]heptan-6-yl]ethanone]",1.03
7,"CN1CC2CC(C1)N(C(=O)c1ccc(Nc3nc4c(N5CCC(O)(c6ccc(Cl)cc6)CC5)cccn4n3)cc1)C2 (centres unmarked) [Example 1-55, [4-[[8-[4-(4-chlorophenyl)-4-hydroxy-1-piperidyl]-[1,2,4]triazolo[1,5-a]pyridin-2-yl]amino]phenyl]-(3-methyl-3,6-diazabicyclo[3.2.1]octan-6-yl)methanone]",3.19
8,"O=C(c1ccc(Nc2nc3c(N4CCC(O)(c5ccc(Cl)cc5)CC4)cccn3n2)cc1)N1CCN(C2CCC2)CC1 [Example 1-56, [4-[[8-[4-(4-chlorophenyl)-4-hydroxy-1-piperidyl]-[1,2,4]triazolo[1,5-a]pyridin-2-yl]amino]phenyl]-(4-cyclobutylpiperazin-1-yl)methanone]",4.3
9,"CN1CCCC12CN(C(=O)c1ccc(Nc3nc4c(N5CCC(O)(c6ccc(Cl)cc6)CC5)cccn4n3)cc1)C2 [Example 1-60, [4-[[8-[4-(4-chlorophenyl)-4-hydroxy-1-piperidyl]-[1,2,4]triazolo[1,5-a]pyridin-2-yl]amino]phenyl]-(5-methyl-2,5-diazaspiro[3.4]octan-2-yl)methanone]",1.06
10,"CC1CCN(CCNC(=O)c2ccc(Nc3nc4c(N5CCC(O)(c6ccc(Cl)cc6)CC5)cccn4n3)cc2)CC1 [Example 1-61, 4-[[8-[4-(4-chlorophenyl)-4-hydroxy-1-piperidyl]-[1,2,4]triazolo[1,5-a]pyridin-2-yl]amino]-N-[2-(4-methyl-1-piperidyl)ethyl] benzamide]",2.53
